# Reference: PubChem BioAssay (Tox21)
# This list was built around the results that the source calls inconclusive (neither active nor inactive); the mix of calls is not that of the screen. For some of these results: A potency beside an inconclusive call is a rough fit, not a confirmed value. Activity calls are given as the source filed them. Unless noted, the call rests on the fitted dose curve; in most records, active means well fitted curve in the direction sought with a large enough effect in the repeat runs; inconclusive means weak or mixed curves; inactive means no such curve, though single readings can be large; an effect the other way counts as inactive or inconclusive.
# Legend:
# [1] = qHTS assay for small molecule agonists of the p53 signaling pathway (AID 651631; calls by dose curve; further: nearly all actives have a fitted effect of over 15% in size; further: potency means the concentration at half of the fitted maximal effect); conditions: HCT-116 p53RE-bla reporter, beta-lactamase FRET ratio, 16 h; activation: at 73.3 µM (top of the series) unless noted
# In short: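 HCT-116 p53RE-bla reporter line, 16 h compound treatment at 37 °C, then fluorescence after 2 h with B/G FRET substrate.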
# [2] = qHTS assay for small molecules that induce genotoxicity in human embryonic kidney cells expressing luciferase-tagged ATAD5 (AID 651632); further: potency means the concentration at half of the fitted maximal effect; nearly all actives have a fitted effect of over 15% in size
# In short: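 Cells were seeded at 2,000 per well, dosed with compound, and incubated 16 hr at 37C in 5% CO2. Luciferase activity was then quantified after a 30 min room-temperature incubation with Amplite.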
# [3] = qHTS assay for small molecule disruptors of the mitochondrial membrane potential (AID 720635); conditions: HepG2 mitochondrial membrane potential, Mito-MPS dye ratio; ratio activity, negative = MMP loss: at 83.2 µM (top of the series) unless noted; further: potency means the concentration at half of the fitted maximal effect
# In short: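 HepG2 cells exposed to compound 1 hr at 37C, then Mito-MPS dye 30 min. Ratio read of aggregate (540/590 nm) versus monomer (490/535 nm) fluorescence.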
# [4] = qHTS assay to identify small molecule antagonists of the glucocorticoid receptor (GR) signaling pathway - cell viability counter screen (AID 720693); conditions: GR-bla HeLa viability, CellTiter-Glo luminescence, 18 h, with 5 nM dexamethasone present; viability change, negative = cytotoxic: at 58.5 µM (top of the series); further: nearly all actives have a fitted effect of over 55% in size; further: potency means the concentration at half of the fitted maximal effect; on viability change, negative = cytotoxic: on the % scale 0 is the no-effect control and ±100 the full control effect
# [5] = qHTS assay for identifying genotoxic compounds that show differential cytotoxicity against isogenic chicken DT40 cell lines with known DNA damage response pathways - Rev3 mutant cell line (AID 743014); conditions: chicken DT40 Rev3-/- viability, CellTiter-Glo, 40 h; activity, negative = cytotoxicity: at 68.4 µM (top of the series) unless noted; further: potency means the concentration at half of the fitted maximal effect; nearly all actives have a fitted effect of over 55% in size
# [6] = qHTS assay for identifying genotoxic compounds that show differential cytotoxicity against isogenic chicken DT40 cell lines with known DNA damage response pathways - Rad54/Ku70 mutant cell line (AID 743015); conditions: DT40 Rad54/Ku70 mutant viability, CellTiter-Glo, 40 h; activity change, negative = cytotoxicity: at 66.8 µM (top of the series) unless noted; further: potency means the concentration at half of the fitted maximal effect; nearly all actives have a fitted effect of over 60% in size
# [7] = target: Androgen receptor (Homo sapiens) (UniProt P10275); assay: qHTS assay to identify small molecule antagonists of the androgen receptor (AR) signaling pathway (AID 743035; active means well fitted inhibition curve with a large enough effect in the signal ratio in the repeat runs, not every such curve was filed as active; inconclusive means weak or mixed curves, or effect the other way; inactive means no such curve, though single readings can be large or run the other way; the % refers to the signal ratio; further: potency means the concentration at half of the fitted maximal effect); conditions: HEK293 AR-UAS-bla, R1881-stimulated, beta-lactamase FRET, 16 h; activity change, negative = inhibition: at 58.5 µM (top of the series) unless noted
# In short: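 Steps: seed AR-UAS-bla GripTite HEK293 cells, incubate 4 h at 37C; pin in test compound, then add agonist R1881; incubate 16 h at 37C; add LiveBLAzer B/G FRET substrate, 2 h at room temperature; read fluorescence.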
# [8] = target: Androgen receptor (Homo sapiens) (UniProt P10275); assay: qHTS assay to identify small molecule agonists of the androgen receptor (AR) signaling pathway (AID 743036; active means well fitted activation curve with a large enough effect in the signal ratio in the repeat runs, with a control signal flat, not every such curve was filed as active; inconclusive means weak or mixed curves, or effect the other way; inactive means no such curve, though single readings can be large or run the other way; the % refers to the signal ratio; further: on the % scale 0 is the no-effect control and ±100 the full control effect); conditions: HEK293 AR-UAS-bla GripTite, beta-lactamase FRET ratio, 16 h; activation: at 62.4 µM (top of the series) unless noted
# In short: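 Reporter line: GeneBLAzer AR-UAS-bla-GripTite (HEK293). Steps: plate cells, 4 h rest, add compounds, 16 h at 37C, add LiveBLAzer B/G substrate, 2 h at RT, read fluorescence.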
# [9] = target: Androgen receptor (Homo sapiens) (UniProt P10275); assay: qHTS assay to identify small molecule antagonists of the androgen receptor (AR) signaling pathway using the MDA cell line (AID 743042; further: on the % scale 0 is the no-effect control and ±100 the full control effect; nearly all actives have a fitted effect of over 55% in size)
# In short: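 MDA-kb2 breast carcinoma cells carrying MMTV-luciferase (AR/GR responsive) were co-treated with compounds and the agonist R1881 for 16 h at 37C. Inhibition read as ONE-Glo luminescence; CellTiter-Fluor fluorescence measured in parallel for cytotoxicity.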
# [10] = qHTS assay to identify small molecule antagonists of the thyroid receptor (TR) signaling pathway - cell viability counter screen (AID 743064); conditions: GH3.TRE-Luc viability, CellTiter-Fluor, 24 h; activity change, negative = cytotoxic: at 70.3 µM (top of the series) unless noted; further: potency means the concentration at half of the fitted maximal effect; nearly all actives have a fitted effect of over 50% in size
# In short: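 Plate GH3.TRE-Luc cells; incubate 4 h at 37 °C; add compound, then T3 to 1 nM final; incubate 23.5 h; add CellTiter-Fluor; incubate 30 min at 37 °C, 5% CO2; read fluorescence.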
# [11] = tested on: thyroid hormone receptor (rat, GH3 cells); assay: qHTS assay to identify small molecule agonists of the thyroid receptor (TR) signaling pathway (AID 743066; calls by dose curve; further: on the % scale 0 is the no-effect control and ±100 the full control effect); conditions: GH3.TRE-Luc cells, TR agonist luciferase, 24 h; activation: at 83.9 µM (top of the series) unless noted
# [12] = target: Estrogen receptor (Homo sapiens) (UniProt P03372); assay: qHTS assay to identify small molecule antagonists of the estrogen receptor alpha (ER-alpha) signaling pathway (AID 743069; active means well fitted curve in the direction sought with a large enough effect in the signal ratio in the repeat runs, not every such curve was filed as active; inconclusive means weak or mixed curves, or effect the other way; inactive means no such curve, though single readings can be large or run the other way; the % refers to the signal ratio; further: potency means the concentration at half of the fitted maximal effect); conditions: HEK293 ER-alpha-UAS-bla, beta-lactamase ratio, antagonist mode; activity, negative = inhibition: at 69.4 µM (top of the series) unless noted
# In short: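 In this cell-based reporter format, GripTite HEK293 cells harbouring ER-alpha-UAS-bla were grown overnight with 2% charcoal-stripped FBS, dosed with DMSO-dissolved compounds, then challenged with 17beta-estradiol. After 18 hr at 37C, beta-lactamase activity was detected by FRET fluorescence.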
# [13] = target: Estrogen receptor (Homo sapiens) (UniProt P03372); assay: qHTS assay to identify small molecule agonists of the estrogen receptor alpha (ER-alpha) signaling pathway using the BG1 cell line (AID 743079); conditions: BG1Luc4E2 cells, ERE-luciferase agonist, 22 h; activation: at 70.3 µM (top of the series) unless noted; further: potency means the concentration at half of the fitted maximal effect; nearly all actives have a fitted effect of over 20% in size
# [14] = qHTS assay to identify small molecule antagonists of the estrogen receptor alpha (ER-alpha) signaling pathway using the BG1 cell line (AID 743080; calls by dose curve;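 further: BG1 cells stimulated with 17beta-estradiol alongside compound; potency means the concentration at half of the fitted maximal effect; nearly all actives have a fitted effect of over 25% in size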); conditions: BG1Luc4E2 ERE-luciferase antagonist mode, luminescence; activity change, negative = inhibition: at 70.3 µM (top of the series) unless noted
# In short: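 Endogenous full-length ER-alpha in BG1-Luc-4E2 cells drives a stably integrated 4×ERE luciferase gene; compounds were tested against 17beta-estradiol over 21.5 h, with luminescence and multiplexed viability fluorescence recorded.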
# [15] = qHTS assay to identify small molecule antagonists of the estrogen receptor alpha (ER-alpha) signaling pathway using the BG1 cell line - cell viability counter screen (AID 743081); conditions: BG1Luc4E2 viability, CellTiter-Fluor, 22 h; activity change, negative = cytotoxicity: at 70.3 µM (top of the series) unless noted;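 further: compound given together with 17beta-estradiol as the ER stimulus; potency means the concentration at half of the fitted maximal effect; nearly all actives have a fitted effect of over 45% in size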
# [16] = target: Peroxisome proliferator-activated receptor gamma (Homo sapiens) (UniProt P37231); assay: qHTS assay to identify small molecule agonists of the peroxisome proliferator-activated receptor gamma (PPARg) signaling pathway (AID 743094; active means well fitted activation curve with a large enough effect in the signal ratio in the repeat runs, not every such curve was filed as active; inconclusive means weak or mixed curves, or effect the other way; inactive means no such curve, though single readings can be large or run the other way; the % refers to the signal ratio; further: on the % scale 0 is the no-effect control and ±100 the full control effect); conditions: HEK293H PPARg-UAS-bla, beta-lactamase FRET ratio, 17 h; activation: at 57 µM (top of the series) unless noted
# In short: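 Cells from the PPARg UAS-bla HEK293H line are plated and incubated 5 h at 37C. Compounds in DMSO are pinned in and left 17 h at 37C. LiveBLAzer B/G substrate is then added for 1 h at room temperature before fluorescence is measured.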
# [17] = target: Nuclear receptor subfamily 1 group I member 2 (Homo sapiens) (UniProt O75469); assay: Human pregnane X receptor (PXR) activation by small molecules, qHTS assay (AID 1346985); further: nearly all actives have a fitted effect of over 40% in size; further: potency means the concentration at half of the fitted maximal effect
# In short: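 DPX-2 cells (HepG2 co-transfected with a PXR response element and a CYP3A4-promoter luciferase construct) were seeded at 2,000 per well, rested 5 hr at 37C, then exposed to DMSO-dissolved compounds for 24 hr. Activation was read as luciferase luminescence.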
# [18] = target: Glucocorticoid receptor (Homo sapiens) (UniProt P04150); assay: qHTS assay to identify small molecule antagonists of the glucocorticoid receptor (GR) signaling pathway (AID 720692; active means well fitted inhibition curve with a large enough effect in the signal ratio in the repeat runs, not every such curve was filed as active; inconclusive means weak or mixed curves, or effect the other way; inactive means no such curve, though single readings can be large or run the other way; the % refers to the signal ratio; further: potency means the concentration at half of the fitted maximal effect); conditions: GR-bla HeLa, beta-lactamase FRET ratio, dexamethasone-stimulated, 18 h; activity change, negative = inhibition: at 58.5 µM (top of the series) unless noted
# In short: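 Antagonism was scored as loss of dexamethasone-driven (5 nM final) reporter signal in HeLa cells bearing a glucocorticoid response element–beta-lactamase construct, after 18 h compound exposure at 37 C and 2 h FRET substrate loading.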
# [19] = qHTS assay to identify small molecule that activate the aryl hydrocarbon receptor (AhR) signaling pathway - cell viability counter screen (AID 743086); further: nearly all actives have a fitted effect of over 45% in size; further: potency means the concentration at half of the fitted maximal effect
# In short: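 HepG2-AhR-luc (HG2L7.5c1) cells, 4000/well, treated 24 h at 37 C with compound; viability measured as CellTiter-Fluor fluorescence after 30 min in the same wells as the luciferase read.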
# [20] = target: Nuclear receptor subfamily 1 group I member 2 (Homo sapiens) (UniProt O75469); assay: CYP3A4 induction through human pregnane X receptor (PXR) by small molecules, qHTS assay (AID 1346984); conditions: DPX-2 HepG2 PXR, CYP3A4-luciferin luminescence, 24 h; activation: at 46.1 µM (top of the series) unless noted; further: on the % scale 0 is the no-effect control and ±100 the full control effect; nearly all actives have a fitted effect of over 40% in size
# In short: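 Quantitative HTS in DPX-2 cells, i.e. HepG2 transfected with PXR response element and CYP3A4-promoter luciferase. Compounds in DMSO incubated 24hr at 37C; then P450-Glo CYP3A4 substrate, 3uM final, 3hr; One-Glo luminescence.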
# [21] = qHTS assay for small molecules that induce genotoxicity in human embryonic kidney cells expressing luciferase-tagged ATAD5 - cell viability (AID 651634; calls by dose curve; further: potency means the concentration at half of the fitted maximal effect; nearly all actives have a fitted effect of over 25% in size)
# In short: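 Cells (HEK293T, luciferase-tagged ATAD5) are seeded at 2,000 per well, dosed with compound or DMSO vehicle, and incubated 15.5 hr at 37C and 5% CO2. CellTiter-Fluor is added for 30 min before fluorescence is measured.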
# [22] = target: Glucocorticoid receptor (Homo sapiens) (UniProt P04150); assay: qHTS assay to identify small molecule agonists of the glucocorticoid receptor (GR) signaling pathway (AID 720691; active means well fitted activation curve with a large enough effect in the signal ratio in the repeat runs, not every such curve was filed as active; inconclusive means weak or mixed curves, or effect the other way; inactive means no such curve, though single readings can be large or run the other way; the % refers to the signal ratio; further: potency means the concentration at half of the fitted maximal effect); conditions: GR-bla HeLa, beta-lactamase reporter ratio, 18 h; activation: at 62.4 µM (top of the series) unless noted
# In short: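 Steps: seed GR-bla HeLa cells, incubate 4 h at 37 C/5% CO2; pin-transfer DMSO-dissolved compounds; incubate 18 h at 37 C; add LiveBLAzer B/G FRET substrate; after 2 h at room temperature, measure fluorescence.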
# [23] = qHTS assay to identify small molecule antagonists of the estrogen receptor alpha (ER-alpha) signaling pathway - cell viability counter screen (AID 743074; calls by dose curve; further: potency means the concentration at half of the fitted maximal effect; nearly all actives have a fitted effect of over 45% in size)
# [24] = qHTS assay to identify aromatase inhibitors - cell viability counter screen (AID 743084); conditions: MCF-7 aro ERE viability, CellTiter-Fluor, 24 h; activity change, negative = cytotoxicity: at 70.3 µM (top of the series) unless noted;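 further: cells stimulated with testosterone during compound exposure; potency means the concentration at half of the fitted maximal effect; nearly all actives have a fitted effect of over 55% in size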
# Tags describe the fitted curve by direction and shape or compound fluorescence and quenching.
# Sequence of UniProt P04150 (P04150 whole entry, looked up): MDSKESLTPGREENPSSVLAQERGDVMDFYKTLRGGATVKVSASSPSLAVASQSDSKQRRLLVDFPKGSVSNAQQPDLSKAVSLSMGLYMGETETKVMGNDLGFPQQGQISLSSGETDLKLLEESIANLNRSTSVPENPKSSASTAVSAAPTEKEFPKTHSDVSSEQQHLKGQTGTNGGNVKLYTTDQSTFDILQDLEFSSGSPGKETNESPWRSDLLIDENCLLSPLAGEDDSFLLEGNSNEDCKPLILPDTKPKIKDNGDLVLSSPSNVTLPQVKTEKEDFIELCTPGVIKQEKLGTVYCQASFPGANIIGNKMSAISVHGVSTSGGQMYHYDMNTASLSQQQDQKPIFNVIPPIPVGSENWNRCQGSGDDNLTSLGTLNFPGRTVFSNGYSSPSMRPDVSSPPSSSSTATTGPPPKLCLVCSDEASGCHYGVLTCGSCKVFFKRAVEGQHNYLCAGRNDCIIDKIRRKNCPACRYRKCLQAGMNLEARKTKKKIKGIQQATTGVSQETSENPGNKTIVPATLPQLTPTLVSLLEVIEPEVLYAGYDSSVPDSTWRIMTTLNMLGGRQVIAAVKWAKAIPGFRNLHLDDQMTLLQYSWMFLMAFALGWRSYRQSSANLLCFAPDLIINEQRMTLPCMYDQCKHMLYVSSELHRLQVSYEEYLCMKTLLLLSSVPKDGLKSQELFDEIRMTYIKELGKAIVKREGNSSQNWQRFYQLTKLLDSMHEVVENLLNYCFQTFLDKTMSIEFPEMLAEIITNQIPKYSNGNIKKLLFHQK
# Sequence of UniProt P03372 (P03372 whole entry, looked up): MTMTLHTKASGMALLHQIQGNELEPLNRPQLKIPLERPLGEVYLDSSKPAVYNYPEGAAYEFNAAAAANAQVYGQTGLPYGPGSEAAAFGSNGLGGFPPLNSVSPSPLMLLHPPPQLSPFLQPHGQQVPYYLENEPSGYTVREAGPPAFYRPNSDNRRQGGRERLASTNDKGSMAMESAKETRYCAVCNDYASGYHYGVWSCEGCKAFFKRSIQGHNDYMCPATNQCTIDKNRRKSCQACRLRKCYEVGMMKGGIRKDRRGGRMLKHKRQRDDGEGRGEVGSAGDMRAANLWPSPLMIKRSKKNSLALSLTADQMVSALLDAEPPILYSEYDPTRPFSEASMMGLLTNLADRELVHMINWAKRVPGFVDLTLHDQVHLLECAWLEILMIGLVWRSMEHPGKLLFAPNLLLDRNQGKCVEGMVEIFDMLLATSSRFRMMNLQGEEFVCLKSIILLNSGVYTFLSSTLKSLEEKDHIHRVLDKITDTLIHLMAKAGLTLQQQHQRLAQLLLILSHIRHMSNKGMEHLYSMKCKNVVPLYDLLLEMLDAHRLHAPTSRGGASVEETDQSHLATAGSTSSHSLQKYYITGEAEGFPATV
# Sequence of UniProt P10275 (P10275 whole entry, looked up): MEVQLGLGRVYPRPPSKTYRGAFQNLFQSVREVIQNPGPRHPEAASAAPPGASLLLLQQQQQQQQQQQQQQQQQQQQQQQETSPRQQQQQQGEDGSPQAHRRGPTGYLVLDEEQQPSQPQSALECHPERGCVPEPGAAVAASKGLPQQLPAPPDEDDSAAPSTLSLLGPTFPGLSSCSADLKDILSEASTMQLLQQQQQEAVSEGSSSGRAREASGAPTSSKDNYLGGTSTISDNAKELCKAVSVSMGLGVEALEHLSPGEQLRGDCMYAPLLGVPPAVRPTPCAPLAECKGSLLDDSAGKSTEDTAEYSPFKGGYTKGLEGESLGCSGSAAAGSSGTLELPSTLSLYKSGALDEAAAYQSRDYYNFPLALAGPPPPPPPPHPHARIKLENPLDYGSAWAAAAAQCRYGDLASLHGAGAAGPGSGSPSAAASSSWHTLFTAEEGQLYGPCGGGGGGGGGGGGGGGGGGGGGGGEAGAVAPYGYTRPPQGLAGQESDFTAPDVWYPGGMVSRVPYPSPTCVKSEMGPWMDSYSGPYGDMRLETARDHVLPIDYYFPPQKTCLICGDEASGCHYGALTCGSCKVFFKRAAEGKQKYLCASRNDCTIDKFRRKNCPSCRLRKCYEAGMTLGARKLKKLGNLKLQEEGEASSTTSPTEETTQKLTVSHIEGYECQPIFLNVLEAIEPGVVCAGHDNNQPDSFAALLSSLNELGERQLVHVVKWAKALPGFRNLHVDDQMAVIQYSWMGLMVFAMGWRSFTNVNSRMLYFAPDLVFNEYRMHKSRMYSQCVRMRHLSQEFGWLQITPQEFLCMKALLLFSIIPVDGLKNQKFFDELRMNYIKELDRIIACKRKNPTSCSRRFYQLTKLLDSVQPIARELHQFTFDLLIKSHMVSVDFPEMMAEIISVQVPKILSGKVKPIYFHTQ
# Sequence of UniProt P37231 (P37231 whole entry, looked up): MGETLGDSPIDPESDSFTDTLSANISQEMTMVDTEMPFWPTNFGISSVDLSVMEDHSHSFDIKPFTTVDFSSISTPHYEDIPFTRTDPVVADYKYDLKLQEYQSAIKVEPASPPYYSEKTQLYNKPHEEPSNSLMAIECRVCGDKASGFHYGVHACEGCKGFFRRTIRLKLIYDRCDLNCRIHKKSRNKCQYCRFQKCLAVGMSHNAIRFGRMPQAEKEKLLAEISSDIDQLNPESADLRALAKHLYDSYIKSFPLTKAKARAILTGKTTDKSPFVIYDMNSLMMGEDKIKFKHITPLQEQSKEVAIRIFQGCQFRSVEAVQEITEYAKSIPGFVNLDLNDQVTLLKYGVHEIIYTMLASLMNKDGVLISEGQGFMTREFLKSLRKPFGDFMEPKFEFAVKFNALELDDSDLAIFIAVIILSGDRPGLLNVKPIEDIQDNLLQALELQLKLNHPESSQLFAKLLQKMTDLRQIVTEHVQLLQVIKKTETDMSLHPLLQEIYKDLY
structure (smiles),measurement,setting,value
CC(C)OC(=O)Nc1ccc2nc(-c3cscn3)[nH]c2c1,Potency,[1],active: 2.37 µM
same,Potency,[2],active: 10.6 µM
same,Potency,[3],active: 9.87 µM
same,Potency,[4],inactive
same,Potency,[5],active: 1.88 µM
same,Potency,[6],active: 2.37 µM
same,Potency,[7],active: 4.25 µM
same,activation,[8],inconclusive: 39.7%
same,Potency,[9],inactive
same,Potency,[10],inconclusive: 4.22 µM [cytotoxic]
same,Potency,[11],inactive
same,Potency,[12],"inconclusive: 10.7 µM [inhibitor, partial curve]"
same,Potency,[13],active: 2.11 µM
same,Potency,[14],inconclusive: 6.68 µM
same,Potency,[15],"inconclusive: 0.133 µM [rising, full curve, poor fit]"
same,Potency,[16],inactive
same,Potency,[17],active: 5.01 µM
CC(=O)OCC(=O)[C@@]1(O)CC[C@H]2[C@@H]3CCC4=CC(=O)CC[C@]4(C)C3=CC[C@@]21C,Potency,[1],inactive
same,Potency,[18],"inconclusive: 6.74 µM [inhibitor, partial curve, poor fit]"
same,Potency,[13],active: 29.8 µM
same,Potency,[19],inactive
same,Potency,[20],inactive
CCCCCCCCCCCC[n+]1ccc2ccccc2c1,Potency,[1],active: 26.6 µM
same,Potency,[21],active: 7.5 µM
same,Potency,[22],"inconclusive: 19 µM [cytotoxic, partial curve]"
same,Potency,[18],"inconclusive: 26.8 µM [cytotoxic, single point]"
same,Potency,[4],active: 9.52 µM
same,activation,[11],inconclusive: -8.61% [phenotype inactive]
same,Potency,[12],"inconclusive: 2.13 µM [rising, full curve]"
same,Potency,[23],active: 2.13 µM
same,Potency,[13],"inconclusive: 3.76 µM [inhibitor, full curve]"
same,Potency,[14],active: 7.5 µM
same,Potency,[15],active: 26.6 µM
same,Potency,[24],"inconclusive: 29.8 µM [cytotoxic, single point]"
same,Potency,[19],"inconclusive: 29.8 µM [falling, partial curve]"
same,activation,[16],inconclusive: 1.58%
same,Potency,[17],inactive
